Screen size: about 45,000 compounds; about 200 (0.44%) were called active. The inconclusive results got no clear call from the source; some entries with a clear call stand among them for comparison. Calls come from the whole dose curve; as a rule, active = well fitted activation curve with a large enough effect; inconclusive = small, poorly fitted or top-dose-only effect; inactive = no such curve, though single readings can be large or run the other way. Potencies beside an inconclusive call are fits to weak or partial responses and may not hold up.
Assay: qHTS of TDP-43 Inhibitors: NCGC Sytravon Library Screen; note: nearly all actives have a fitted effect of over 55% in size; for growth rescue (activation): 0% is about no effect
Settings: yeast TDP-43 toxicity rescue, BacTiter-Glo growth, 24 h; growth rescue (activation): at 46.1 µM (top of the series)
How it was run: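 TDP-43-expressing yeast, pregrown in raffinose, seeded at OD600 0.02 in galactose medium with compound for 24 hr at 30 deg C. Growth read by BacTiter-Glo luminescence, so rescue of toxicity appears as activation.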
Potency is the fitted concentration of half-maximal effect; tags give direction and shape of the fitted curve.

Row | Compound | Potency | growth rescue (activation)
1 | Cc1cc(C)c(OCC(=O)N(Cc2ccc(N(C)C)cc2)Cc2ccco2)c(C)c1 | inconclusive: 22.4 µM [activator, single point] | 
2 | CN(C)C(=O)c1cn(-c2ccccc2)nc1-c1cccc([N+](=O)[O-])c1 | inactive | 
3 | O=C(c1ccc2ccccc2c1)N1CCN(S(=O)(=O)/C=C/c2ccccc2)CC1 | inconclusive: 15.8 µM [activator, partial curve, poor fit] | 
4 | CC(=O)Nc1ccc(OCCOc2ccccc2C(C)=O)cc1 | inactive | 
5 | Cn1cccc1CC(=O)NNC(=S)NC(=O)c1ccccc1Br | inconclusive: 20 µM [activator, single point] | 
6 | Cc1cccc(N2CCN(C(=O)/C=C/c3cccs3)CC2)c1C | active: 14.1 µM | 
7 | COc1ccc(C(=O)NC2CCCc3ccccc32)cc1 (configuration not stated) | inconclusive: 20 µM [activator, partial curve, poor fit] | 
8 | COc1ccc(CCNC(=S)N2CCC(C(N)=O)CC2)cc1 | inconclusive: 35.5 µM [activator, single point] | 
9 | COc1ccc(-c2ccc(C(=O)NCC(C)C)c3occc23)c(C)c1 | inconclusive: 20 µM [activator, partial curve, poor fit] | 
10 | COc1ccc(/C(N)=N/OC(=O)c2ccc(Br)o2)cc1 | inconclusive: 17.8 µM [activator, single point] | 
11 | Nc1nonc1OCCN1CCN(c2ccc([N+](=O)[O-])c3cccnc23)CC1 | inconclusive: 17.8 µM [activator, partial curve, poor fit] | 
12 | Cc1ccc(NC(=O)c2ccc(F)cc2)cc1S(=O)(=O)N1CCCCCC1 | inconclusive: 25.1 µM [activator, single point] | 
13 | COc1ccc(/C=N/Nc2cc(C)nc(-n3nc(C)cc3C)n2)cc1 | inconclusive: 17.8 µM [activator, partial curve, poor fit] | 
14 | CCOC(=O)C1(CC2CC2)CCN(C(=O)c2cccnc2C)CC1 | inactive | 
15 | CSc1nc2sc3c(c2c(=S)[nH]1)CC(C)(C)OC3 | inconclusive: 2.82 µM [activator, partial curve] | 
16 | O=C(/C=C/c1cccc(OCc2ccccc2)c1)c1cccnc1 | inconclusive: 14.1 µM [activator, partial curve, poor fit] | 
17 | O=C(Nc1ccc(N2CCCC2)cc1)c1cccc(-c2cc3ccccc3oc2=O)c1 | active: 22.4 µM | 
18 | OCc1cccc(-c2cnc3c(Nc4cccc(OC(F)(F)C(F)F)c4)nccn23)c1 |  | inconclusive: 103% [activator]
19 | C=CCc1cccc(CNc2ccc(Br)cc2)c1O | inconclusive: 12.6 µM [activator, partial curve, poor fit] | 
20 | Cc1ccc(Nc2nc3ccccc3s2)c(C)c1 | inconclusive: 20 µM [activator, partial curve, poor fit] | 
21 | O=C(NC1CCCc2ccccc21)N[C@@H](Cc1ccccc1)C(=O)O (some centres not stated) | inactive | 
22 | COc1ccc(OCC(=O)NC2CCSc3ccccc32)cc1 (configuration not stated) |  | inconclusive: 64.9% [activator]
23 | COCCCNC(=O)COc1ccc2oc3c(c2c1)CCCC3 | inconclusive: 15.8 µM [activator, partial curve, poor fit] | 
24 | COc1ccc(-n2nnnc2SCC(=O)Nc2c(C)n[nH]c2C)cc1 | inactive | 

Row | Compound | Potency | growth rescue (activation)
25 | Cc1ccc(F)cc1NCC(=O)Nc1ccc(Cl)cc1F | inconclusive: 11.2 µM [activator, partial curve, poor fit] | 
26 | CC(C)=CCN1CCN(Cc2cc(C(C)C)n[nH]2)CC1CCO (configuration not stated) | inactive | 
27 | Cc1nnsc1C(=O)Nc1ccc(Cl)cc1Cl | inconclusive: 15.8 µM [activator, partial curve, poor fit] | 
28 | CC1(C(=O)NS(=O)(=O)c2ccc(F)cc2F)CCN1C(=O)c1ccc(C2CCCCC2)cc1 (configuration not stated) | inactive | 
29 | COC(=O)c1cc(OC)c(OC)cc1NC(=O)c1ccc(Br)o1 | inactive | 
30 | CCOc1cc(/C=N/O)ccc1OCc1ccc([N+](=O)[O-])cc1 | inconclusive: 15.8 µM [activator, single point] | 
31 | CCOC(=O)c1sc(=S)n(Cc2ccccc2)c1C | inconclusive: 17.8 µM [activator, single point] | 
32 | C=CCN=C(C)C1=C(O)CCC1=O | inconclusive: 14.1 µM [activator, single point] | 
33 | Cc1ccc(C(=O)NCC(=O)Nc2ccc(Cl)cc2)s1 | inactive | 
34 | CC(C)(C)c1ccc(C(=O)NCC(=O)N2CCCCCC2)cc1 | inactive | 
35 | COc1ccc(C(=O)NC(=S)NCc2ccccc2)cc1OC | inconclusive: 22.4 µM [activator, partial curve, poor fit] | 
36 | Cn1c(SCC(=O)Nc2ccc3c(c2)OCCO3)nnc1-c1ccncc1 | inactive | 
37 | CC(C)CCN(C)c1ccc(/C=N/n2cnnc2)cc1 | inconclusive: 35.5 µM [activator, partial curve, poor fit] | 
38 | COc1cccc(OC)c1OCCOc1ccc(C(=O)c2ccccc2)cc1 | inconclusive: 35.5 µM [activator, partial curve, poor fit] | 
39 | N/C(=N\OC(=O)c1cc(Br)ccc1Cl)c1cccnc1 | inconclusive: 14.1 µM [activator, single point] | 
40 | CC(=O)OC[C@@H]1CN(Cc2ccccc2)C[C@H](n2cnc3c(NC4CCCC4)ncnc32)O1 | inactive | 
41 | Cc1ccc(-c2cnc(C(O)c3ccc(C)cc3)[nH]2)cc1 (configuration not stated) | inactive | 
42 | COc1ccccc1CNC(=O)CN(C)S(=O)(=O)c1ccc(Br)s1 | inconclusive: 22.4 µM [activator, partial curve] | 
43 | CC(C)Sc1nc2sc3c(c2c(=O)n1Cc1ccccc1)CCCC3 | inactive | 
44 | CCC(CC)=NNc1cccc([N+](=O)[O-])c1 | inconclusive: 35.5 µM [activator, single point] | 
45 | O=C(Nc1ccccc1N1CCOCC1)C1=NN(c2ccccc2)C(=O)CC1 | inconclusive: 11.2 µM [activator, single point] | 
46 | Cc1cccc(OCCSc2nc3ccccc3n2CC(=O)N2CCOCC2)c1 | inactive | 
47 | O=C(CSc1ccccc1)Nc1cc(S(=O)(=O)N2CCOCC2)ccc1N1CCOCC1 | inactive | 
